Laboratory results taken from paper PMC4336329 (PLoS ONE, 2015).
In all, about 310,000 compounds went through this assay and about 2,200 (0.71%) showed an effect of 50% or more. The effect is printed as a negative number. This is one part of the list.

molecular target: human ether-à-go-go-related gene (hERG) potassium channel (human, UniProt Q12809); assay: primary screen, population patch clamp on CHO cells stably expressing hERG
Sequence (Q12809 whole entry, looked up): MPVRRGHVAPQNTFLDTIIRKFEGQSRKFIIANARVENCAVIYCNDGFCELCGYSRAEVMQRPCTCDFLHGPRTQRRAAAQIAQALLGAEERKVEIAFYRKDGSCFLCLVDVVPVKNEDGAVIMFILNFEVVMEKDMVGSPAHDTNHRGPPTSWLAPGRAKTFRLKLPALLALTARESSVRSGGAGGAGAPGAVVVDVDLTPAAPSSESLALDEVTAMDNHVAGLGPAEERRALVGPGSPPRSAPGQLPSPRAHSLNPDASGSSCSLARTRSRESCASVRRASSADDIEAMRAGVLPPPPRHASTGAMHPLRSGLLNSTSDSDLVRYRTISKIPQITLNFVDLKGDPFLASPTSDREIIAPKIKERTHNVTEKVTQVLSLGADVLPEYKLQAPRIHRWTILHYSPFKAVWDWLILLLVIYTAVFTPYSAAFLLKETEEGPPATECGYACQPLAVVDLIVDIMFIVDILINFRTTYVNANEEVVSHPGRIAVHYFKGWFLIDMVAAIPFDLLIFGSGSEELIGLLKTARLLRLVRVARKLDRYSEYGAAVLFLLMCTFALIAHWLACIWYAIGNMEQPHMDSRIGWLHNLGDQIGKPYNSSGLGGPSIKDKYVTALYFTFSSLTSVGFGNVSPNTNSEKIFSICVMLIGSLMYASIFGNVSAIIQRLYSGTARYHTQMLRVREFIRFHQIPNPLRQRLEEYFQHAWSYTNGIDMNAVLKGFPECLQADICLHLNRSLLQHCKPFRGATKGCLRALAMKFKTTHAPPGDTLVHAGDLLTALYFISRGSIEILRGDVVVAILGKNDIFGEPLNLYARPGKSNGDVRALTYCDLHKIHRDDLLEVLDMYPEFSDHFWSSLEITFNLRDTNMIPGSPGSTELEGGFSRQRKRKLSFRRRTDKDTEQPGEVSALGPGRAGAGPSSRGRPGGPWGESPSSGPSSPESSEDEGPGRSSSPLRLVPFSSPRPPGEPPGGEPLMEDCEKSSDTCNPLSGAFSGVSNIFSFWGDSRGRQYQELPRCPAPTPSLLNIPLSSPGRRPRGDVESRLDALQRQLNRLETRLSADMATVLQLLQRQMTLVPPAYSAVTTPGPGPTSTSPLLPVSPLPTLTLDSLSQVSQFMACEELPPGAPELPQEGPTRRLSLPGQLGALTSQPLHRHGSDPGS

Compound | hERG current change (%, negative = inhibition) at 1uM [%]
COc1ccc2c(c1)c(C)cc[n+]2Cc1ccccc1.[Cl-] | 14.6
CCc1nccn1S(=O)(=O)c1ccccc1[N+](=O)[O-] | 2.99
COc1ccc(C(=O)C2CCCN(Cc3ccc4nonc4c3)C2)cc1F (stereo not drawn) | 3.27
CC1(C)Cc2c(c(-c3ccco3)nc3n[nH]c(N)c23)CO1 | 2.25
COc1ccccc1C(O)(C(=O)NNc1cccc(C)c1)c1ccccc1OC | 8.03
O=[N+]([O-])c1cccc(-c2cn3ccccc3n2)c1 | 15.2
O=C(NC1CC1)C1CCN(C2CCN(C(=O)CSc3ccccc3)CC2)CC1 | 15.4
COC(=O)C(Cc1ccccc1)NC(=O)C12CC3CC(CC(C3)C1)C2 (stereo not drawn) | 2.17
CCC1(C)CC2(CCCN(CCC(O)(c3ccccc3)c3ccccc3)C2)CCO1.Cl (stereo not drawn) | 0.555
COc1ccc(C(NC(=O)c2ccc(=O)[nH]c2)C(=O)Nc2ccc(C(C)C)cc2)cc1 (stereo not drawn) | 5.41
Cc1cc(C(=O)OCC(=O)NCCc2ccccc2)c2ccccc2n1 | 13.1
COc1cc(NC(=O)c2c(F)c(F)c(F)c(F)c2F)c(OC)cc1Cl | 0.502
Cc1ccc(S(=O)(=O)N2CCCOC2CNC(=O)C(=O)NCc2ccncc2)cc1 (stereo not drawn) | 1.54
CCCCCn1ccc(=O)c2c(C(F)(F)F)nccc21 | 14
Cc1ccccc1C1CCCN(Cc2nc(C3CC3)no2)C1 (stereo not drawn) | 2.7
CCC(=O)N(C)CCc1cc2c(c(OC)c1/C=N/Nc1ccc(C(=O)O)cc1)OCO2 | 3.79
COC(=O)CNC(=O)C(Cc1c[nH]c2ccccc12)NC(=O)OC(C)(C)C (stereo not drawn) | 10.2
COc1ccc2c(C=Nc3c(C)n(C)n(-c4ccccc4)c3=O)c(O)n(Cc3ccco3)c(=O)c2c1 | 1.49
CCc1c(C)sc(NC(=O)c2cnn3cccnc23)c1C#N | 7.78
CN(C)c1cc2c(c(N(C)C)c1)C(=O)c1ccccc1C2=O | 13.4
COc1ccc(OCCSc2nnc(-c3ccc(OC)cc3)n2N)cc1 | 7.59
COc1ccc(Nc2nc(N)nc(CSC(=S)N3CCC(C)CC3)n2)cc1 | 11.2

Compound | hERG current change (%, negative = inhibition) at 1uM [%]
NC(CC(=O)O)c1cccc(OCc2ccccc2)c1 (stereo not drawn) | 8.55
COc1cccc(/C=N/n2c(-c3n[nH]c4c3CCC4)n[nH]c2=S)c1OC | 3.21
Cc1cc([N+](=O)[O-])nn1CCC(=O)Nc1nccs1 | 9.35
COc1ccccc1NC(=O)CSc1nnnn1-c1ccc(C(=O)O)cc1 | 13.8
c1cncc(CNC2=NCCCCC2)c1 | 1.17
CCCCCC(=O)N1CCN(CCN=CC2=C(O)CC(c3ccc(OC)cc3)CC2=O)CC1 (stereo not drawn) | -54.5
COc1ccc(C=C(c2nc3ccccc3s2)c2nc3ccccc3s2)cc1O | 8.63
C/C(=N\NC(=O)c1cc(-c2ccccc2C)nc2ccccc12)c1cccnc1 | 12.1
CCOC(=O)/C(C(=Nc1ccccc1)Nc1ccccc1)=C(\C)O | 13.4
N#Cc1sc(C(N)=O)c(-c2ccccc2)c1-c1ccccc1 | 10.2
Cc1ccc(NC(=O)CN(Cc2ccccc2)S(C)(=O)=O)cc1C | 2.69
Cc1cc(C(=O)C(C)OC(=O)c2ccc(NC(=O)CC#N)cc2)c(C)n1-c1ccc(OC(F)F)cc1 (stereo not drawn) | 14
CC1=CC(C)(C)N(C(=O)CSc2nncn2C)c2ccccc21 | 12
CN(C)/C=C(\C#N)C(=O)N/N=C(\CC(=O)C(F)(F)F)c1ccco1 | 14.4
O=C(NCCCCC(NC(=O)C1CCCCC1)C(=O)O)c1ccccc1 (stereo not drawn) | 9.07
CCCNC(=O)c1nn2cc(Br)cnc2c1Br | -15.8
CC(=O)Nc1sc(C)c(C)c1C(=O)OCC(=O)NCc1ccc(Cl)cc1 | 9.14
CC1CCN(c2nc(-c3cccnc3)nc3scc(-c4ccccc4)c23)CC1 | 9.34
O=C(NCCN1CCCC1)C1CCC(=O)N(CCCN2CCOCC2)C1 (stereo not drawn) | 9.24
O=C(O)c1cccc(NC(=O)c2ccc3c(c2)C(=O)N(c2cccc([N+](=O)[O-])c2)C3=O)c1 | 20.2
COc1ccc(N2CCN(C(=O)CN(c3ccc(Br)cc3)S(C)(=O)=O)CC2)cc1 | 9.57
O=C(COC(=O)/C=C/c1cccc(Br)c1)NC1CCCCC1 | 17.3

Compound | hERG current change (%, negative = inhibition) at 1uM [%]
CCCNC(=O)c1ccccc1C(=O)NC1(C(=O)NCCC)CCCC1 | 12.2
O=C(NCCNC(=O)c1ccc(Br)o1)c1ccc(Br)o1 | 5.35
Cc1ccccc1CNS(=O)(=O)c1csc(C(N)=O)c1 | 18.4
CCOc1ccc(NS(=O)(=O)c2ccc3[nH]c(=O)c(=O)[nH]c3c2)cc1 | 10.4
CCOP(=O)(O)c1ccccc1OCCOCCOc1ccccc1P(=O)(O)OCC | 8.2
COc1ccccc1NS(=O)(=O)c1c(C)[nH]c(C)c1C(=O)N1CCCC1 | 19.8
CCOC(=O)c1c(C=O)c(C)n(Cc2ccccc2)c1C | 7.38
COc1cc(OC)c2ccc(=O)oc2c1C(CCN1CCCC(C)C1)c1ccc2c(c1)OCO2 (stereo not drawn) | -12.6
CC(C)[N+]1(C)[C@@H]2CC[C@H]1CC(OC(=O)C(CO)c1ccccc1)C2.[Br-] (stereo partly drawn) | 13.3
COCCOC(=O)C1=C(C)NC2=C(C(=O)CC(C)(C)C2)C1c1ccc(N(C)C)cc1 (stereo not drawn) | 15.2
Cc1ccc(S(=O)(=O)N(C)CC(=O)OCC(=O)N2CCN(c3ccccc3)CC2)cc1 | 2.43
Cc1noc(-c2ccccc2)c1NC(=O)Nc1ccccc1 | 8.39
COc1ccc(OC)c(C2=Nn3c(nnc3-c3cccc(OC(C)C)c3)SC2)c1 | 6.26
CC(=O)Nc1ccc(S(=O)(=O)Nc2ccc3ccccc3n2)cc1 | 7.35
CC(C)N1C(=O)CC2(CC[N+](C)(CCOC(=O)C(O)(c3ccccc3)c3ccccc3)CC2)C1=O.[I-] (stereo not drawn) | 9.27
CN(Cc1nc(-c2cnccn2)no1)CC1(c2ccccc2)CC1(C)C (stereo not drawn) | -2.5
CC(C)CC(=O)Nc1ccc(C(=O)NN2C(=O)c3ccccc3C2=O)cc1 | 13.6
CCONc1ncnc2nonc12 | 14.2
COc1cccc(N(C(=O)c2snc(C(N)=O)c2N)C(C(=O)NCC2CCCO2)c2ccc(F)cc2)c1 (stereo not drawn) | 13.9
O=C(CCc1ccccc1)NNC(=S)NCc1ccc(Cl)cc1 | 21.8
CCCC(=O)N1CC2(C)CN(C(=O)CCC)CC(CCC)(C1)C2=O | 11.7
Cc1ccccc1Nc1nc2nonc2nc1N1CCOCC1 | 6.45

Compound | hERG current change (%, negative = inhibition) at 1uM [%]
CCOc1ccccc1N(CC(=O)NCC1CCCO1)C(=O)CCC(=O)Nc1cc(C)on1 (stereo not drawn) | 14.2
NNC(=O)COc1cccc(Oc2ccccc2)c1 | 19
CN(C(=O)CSC1=Nc2ccccc2C2=NC(c3ccccc3)C(=O)N12)C1CCCCC1 (stereo not drawn) | -18.2
CN1CCN(c2ccc(NC(=O)c3ccc4ccccc4c3)cc2)CC1 | -14.6
COc1ccc(/C=C/C(=O)N[C@H](C(=O)O)C(C)C)cc1 | 25.8
COc1ccc(Cn2c(S(=O)(=O)CC(N)=O)nc3ccccc32)cc1[N+](=O)[O-] | 7.29
Cn1cc(CN2CCC(C(=O)Nc3cccc(-c4cscn4)c3)CC2)cn1 | 13.5
Cc1nn(CC(=O)N2CCOCC2)c(=O)c2ccccc12 | 0.212
O=c1n(-c2ccccc2)c(=O)n2n1CCCC2 | 13.3
CCC(C(=O)N1CCC2(CC1)OCCO2)n1c2ccccc2c2nc(=O)cc(C)n21 (stereo not drawn) | 12.6
CCOC(=O)C1=C(COC(=O)CNS(=O)(=O)c2ccc(C)cc2)NC(=O)NC1C (stereo not drawn) | 16
O=[N+]([O-])c1ccc(O)c(C=Nc2ccc3nc(-c4ccccc4)[nH]c3c2)c1 | 0.284
O=[N+]([O-])c1ccc(N2CCOCC2)c2ccncc12 | -18.1
O=C(COC(=O)c1nc(-c2ccccc2)n(-c2cccc(C(F)(F)F)c2)n1)NCc1cccs1 | 1.28
N/C(=N\OC(=O)CCC1CCCCC1)c1ccccn1 | -2.93
Cc1ccc(S(=O)(=O)NNC(=O)CCC(=O)Nc2ccccc2Cl)cc1 | 12.5
Cc1ccc[n+](-c2nc3ccccc3nc2C(=C=[N-])C#N)c1 | 8.67
C/C(=N\NC(=O)c1cccc(S(=O)(=O)N2CCOCC2)c1)c1ccc(O)cc1 | 6.57
O=C(COc1cccnc1[N+](=O)[O-])N1CCN(C(=O)c2ccco2)CC1 | 0.106
C/C(Cl)=C/Cn1c(SCC(C)C)nc2c1c(=O)[nH]c(=O)n2C | 10
N=C1/C(=C\c2ccc(OC(=O)c3ccc(F)cc3)cc2)C(=O)N=C2SC(N3CCOCC3)=NN12 | 13.1
